The values below come from PubChem BioAssay AID1347073 (National Center for Advancing Translational Sciences (NCATS), 2019).

The whole screen tested about 45,000 compounds, of which about 200 (0.44%) were called active. Another 7% or so got no clear call; they are omitted. Calls follow the shape of the dose curve; as a rule, active = well fitted activation curve with a large enough effect; inconclusive = small, poorly fitted or top-dose-only effect; inactive = no such curve, though single readings can be large or run the other way. Some of the results follow.

The assay in a line: qHTS of TDP-43 Inhibitors: NCGC Sytravon Library Screen. Also: 0% is about no effect; nearly all actives have a fitted effect of over 55% in size. The settings on record: yeast TDP-43 toxicity rescue, BacTiter-Glo growth, 24 h; series mostly up to 46.1 µM; growth rescue (activation): at the top concentration. Put shortly: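 TDP-43-expressing yeast, pregrown in raffinose, seeded at OD600 0.02 in galactose medium with compound for 24 hr at 30 deg C. Growth read by BacTiter-Glo luminescence, so rescue of toxicity appears as activation.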
(Quantitative high-throughput screening tests each substance at several concentrations.)
For `CCN1C(=O)/C(=C/c2nc3ccccc3c(=O)n2-c2ccc(C)cc2)c2ccccc21`, the “growth rescue (activation)” value was inactive: 14.3%. Consider `COc1ccc(S(=O)(=O)N2CCC(C(=O)NC3CCCC3)CC2)cc1C`, for which the “growth rescue (activation)” value was inactive: -7.33%. As for `Cc1ccc(NC(=O)CSc2nncn2-c2ccccn2)cc1Cl`, the figure is inactive: -7.39%; as for `CCn1ncc(C(=O)Nc2ccc(S(=O)(=O)N3CCCC3)cc2)c1C`, inactive: -0.796%; as for `C=CCOc1ccc(/C=N/O)cc1Cl`, inactive: 26.9%.

Turning to `CC(C)(C)NC(=O)C(c1ccncc1)N(Cc1ccc(F)cc1)C(=O)c1ccc(-c2ccccc2)[nH]1` (stereo not drawn), the “growth rescue (activation)” value was inactive: 18%. Regarding `COc1ccc(S(=O)(=O)N2CCCCC2c2cc(C(=O)NC(C)C)no2)cc1` (stereo not drawn), the “growth rescue (activation)” value was inactive: 2.59%. On to `Cc1ccc2nc(NC(=O)Cn3nc(C)c([N+](=O)[O-])c3C)sc2c1`, for which the “growth rescue (activation)” value is inactive: 2.05%. In the case of `CCn1c2ccccc2c2cc(NC(=O)CN3CCCC3)ccc21`, the “growth rescue (activation)” value was inactive: -15.2%. On to `COc1ccccc1/C=C(/NC(=O)c1ccc(Cl)cc1Cl)C(=O)O`, for which the “growth rescue (activation)” value is inactive: 0.049%. `Cc1cccc(N2CCN(C(=O)CCn3c(=O)[nH]c4ccsc4c3=O)CC2C)c1` (stereo not drawn): the “growth rescue (activation)” value is inactive: 3.53%.

Turning to `CN1C(=O)/C(=C/C=C2/CCCN2C)N(C)C1=S`, the “growth rescue (activation)” value was inactive: -8.51%. The result for `CC(C)(C)NC(=O)COC(=O)c1ccc(Cl)cc1O` reads inactive: 2.07%. `O=C(NN1C(=O)c2ccccc2C1=O)C1CC2CCC1C2` (stereo not drawn): the “growth rescue (activation)” value was inactive: -15.5%. For the compound `CCOC(=O)C1(CCOc2ccccc2)CCN(Cc2nccn2CC)CC1`, the “growth rescue (activation)” value was inactive: 2.97%. As for `O=C(NCCc1ccccc1F)c1ccc2c(c1)OCCO2`, the “growth rescue (activation)” value was inactive: 16.5%. Turning to `CC(=O)Nc1ccc(CN(C)c2c(C)nc3ccc(C(=O)Nc4ccc(Cl)c(Cl)c4)cn23)cc1`, the “growth rescue (activation)” value is inactive: 2.03%. With `COCCNC(=O)CSc1ccccc1C(=O)NC1CCSc2ccccc21` (stereo not drawn), the “growth rescue (activation)” value was inactive: -2.48%. Turning to `Cc1ccc(NC(=O)COC(=O)CCc2ccccc2)c(Cl)c1`, the “growth rescue (activation)” value is inactive: 13.6%. Take `CCOc1ccc(CN2CCNC(=O)C2CC(=O)NCCC2=CCCCC2)cc1` (stereo not drawn): the “growth rescue (activation)” value is inactive: -27%.

As to `Cc1nn(C2CCCCC2)c(N)c1-c1ccccc1`, the “growth rescue (activation)” value is inactive: 20.2%.

Regarding `Cc1cc(C)c2nc(-c3cccnc3)cc(C(=O)Nc3ccc(S(=O)(=O)Nc4onc(C)c4C)cc3)c2c1`, the “growth rescue (activation)” value was inactive: 11.7%. As for `Cc1c(NS(=O)(=O)c2cc(C(=O)N(C)Cc3ccccc3)ccc2Cl)c(=O)n(-c2ccccc2)n1C`, the figure is inactive: 11.9%; as for `CCC(=O)Nc1ccc(Cl)c(NC(=O)c2ccccc2OC)c1`, inactive: 12.1%.

Take `Cc1cc2c(ncn2C)c(NS(=O)(=O)c2ccc(Cl)cc2)c1C`: the “growth rescue (activation)” value was inactive: 7.18%. As for `COc1cc(C(=O)Nc2ccc(C(C)=O)cc2)c(Br)c(OC)c1OC`, the figure is inactive: 6.43%. `Cn1cc(CN2CCC(n3nccc3NC(=O)CCc3ccccc3)CC2)cn1`: the “growth rescue (activation)” value is inactive: 11.7%. In the case of `CCN(CC)CCNC(=O)Nc1ccc2c(c1)N(Cc1ccccc1)C(=O)c1ccccc1S2`, the “growth rescue (activation)” value is inactive: 17.7%. As for `CCOC(=O)c1cn(CC2CC2)c2cc(F)c(F)cc2c1=O`, the figure is inactive: 17.3%. Regarding `CC(=O)OCC(=O)Nc1ccc([N+](=O)[O-])cc1Cl`, the “growth rescue (activation)” value is inactive: 4.29%. The result for `COc1cc2c(cc1OC)C(CC#N)=NC(C)(C)C2` reads inactive: -0.199%; that for `Cc1cc(C)cc(N(CCC(=O)Nc2nnc(C)s2)S(=O)(=O)c2ccc(Cl)cc2)c1`, inactive: -8.58%. As for `Cc1nn2c(NCCN(C)C)c3c(nc2c1-c1ccccc1)CCCC3`, the figure is inactive: 8.02%; as for `CC(Sc1nc(N)c2c3c(sc2n1)CSC(C)(C)C3)C(=O)Nc1ccccc1` (stereo not drawn), inactive: 7.45%; as for `CC(=O)Nc1ccc2c(c1)OCO2`, inactive: 7.26%.

On to `CCc1ccc(S(=O)(=O)/N=C2\C=C(Nc3cccc(C(=O)O)c3)C(=O)c3ccccc32)cc1`, for which the “growth rescue (activation)” value was inactive: -20.6%. As for `O=C(CNC(=O)c1ccc(F)cc1)NCc1ccc(Cl)cc1`, the “growth rescue (activation)” value was inactive: -3.22%. For `COc1ccc(CCNC(=O)CNC(=O)c2nn(-c3ccc(OC)c(OC)c3)c(=O)c3ccccc23)cc1OC`, the “growth rescue (activation)” value is inactive: -1.29%. In the case of `O=C(NCCCc1ccccc1)C1CCC(CNc2c(N3CCCCC3)c(=O)c2=O)CC1` (stereo not drawn), the “growth rescue (activation)” value was inactive: -1.46%.

Turning to `COCCN(C(=S)Nc1ccc(C)cc1C)C(C)c1ccco1` (stereo not drawn), the “growth rescue (activation)” value is inactive: 16.5%. As for `CCCS/C(N)=N/N=C/c1ccccc1O`, the figure is inactive: 11.5%; as for `Cc1ccc(CN(C(=O)COc2c(C)cccc2C)C2CCS(=O)(=O)C2)o1` (stereo not drawn), inactive: 6.4%; as for `COc1ccc(-c2nn(C)c(=O)c3ccccc23)cc1CNS(C)(=O)=O`, inactive: 8.2%.

As to `CCc1cc(C(=O)OC)c(NC(=O)CN2CCN(C(=O)C3CCCO3)CC2)s1` (stereo not drawn), the “growth rescue (activation)” value is inactive: 19.2%. The result for `CCOc1ccc(NC(=O)CSc2nc(NS(=O)(=O)c3ccc(C)cc3)cc(=O)[nH]2)cc1` reads inactive: 7.29%; that for `COc1ccc(-c2csc(NC(=O)COc3ccc(N(C)S(=O)(=O)c4ccc(C)cc4)cc3)n2)cc1`, inactive: 3.84%. As for `Cc1ccc(NC(=O)CCS(=O)(=O)c2ccc(Br)cc2)nc1`, the figure is inactive: 6.98%.

`Cc1nc(S/C(=C\c2ccc(OCc3ccccc3Cl)cc2)C(=O)O)n[nH]1`: the “growth rescue (activation)” value was inactive: 0.826%. Take `C=CCn1c(P(C)(=O)O)nc2ccccc21`: the “growth rescue (activation)” value was inactive: 10.8%.

As to `COc1ccccc1-c1noc(CCCC(=O)NC2CCCC2)n1`, the “growth rescue (activation)” value is inactive: -6%.

`COc1ccc(CCNC(=O)c2coc3ccccc3c2=O)cc1`: the “growth rescue (activation)” value was inactive: 11.5%.

With `O=C(CSc1ccccc1)Nc1ccc(-c2nc3ccccc3[nH]2)cc1`, the “growth rescue (activation)” value is inactive: 8.79%. As for `CCCN(CC(=O)Nc1ccccc1OC)C(=O)c1ccccn1`, the “growth rescue (activation)” value was inactive: 14.6%. With `O=C(CSc1nnc(-c2ccccc2O)o1)NC1CCCCC1`, the “growth rescue (activation)” value was inactive: 25.7%. The result for `O=C(CNC(=O)C1CCCCC1)NCc1ccco1` reads inactive: -8.68%; that for `c1cncc(-c2nc3ccccc3o2)c1`, inactive: 28.2%. In the case of `O=C(c1cccs1)N1CCN(Cc2ccc3c(c2)OCO3)CC1`, the “growth rescue (activation)” value is inactive: 18.1%.

As for `COc1cc(NC(=O)c2cccs2)c(OC)cc1NC(=O)CCC(=O)Nc1ccc(C)cc1`, the “growth rescue (activation)” value is inactive: -7.47%.

For `CCCCc1nc(Cl)c(C#N)c2c1CCC2`, the “growth rescue (activation)” value was inactive: -5.15%. The result for `COc1ccc(/C=N/Nc2c(Cl)cc(Cl)cc2Cl)cc1CN1CCOCC1` reads inactive: -15.9%; that for `COc1ccc(N2C(=O)CC(N(CCc3ccccc3)C(=O)/C=C/C(=O)O)C2=O)cc1` (stereo not drawn), inactive: -1.13%.

With `COc1cc(C(=O)Nc2nnc(C(C)(C)C)s2)c([N+](=O)[O-])cc1OC`, the “growth rescue (activation)” value was inactive: 18.4%. Turning to `COc1ccccc1C(c1nnnn1C(C)C)N1CCN(C(=O)c2ccco2)CC1` (stereo not drawn), the “growth rescue (activation)” value was inactive: 14.2%.

As to `COc1ccc(-c2cc(=Nc3c(C)n(C)n(-c4ccccc4)c3=O)c3ccccc3o2)cc1`, the “growth rescue (activation)” value is inactive: 21%. As to `CN(C(=O)COC(=O)c1cc(NS(=O)(=O)c2cc([N+](=O)[O-])ccc2Cl)ccc1O)C1CCCCC1`, the “growth rescue (activation)” value is inactive: 18.8%. For `CCCCOc1ccc(/C=C/C(=O)Nc2ccc(C(N)=O)cc2)cc1`, the “growth rescue (activation)” value is inactive: -4.7%. As for `Cc1cccc(C)c1NCC(=O)N1CCN(Cc2ccccc2)CC1`, the “growth rescue (activation)” value was inactive: 9.36%. For `O=C(NCc1cccc(Cl)c1)c1ccc(-c2ccc(F)c(F)c2)c2ccoc12`, the “growth rescue (activation)” value is inactive: 13.1%.
